22 molecules from paper PMC12136788 can be followed below.

Some of the results follow.

T1: UNK ZnF1-3 (human, UniProt Q9C0B0 31-174)
T1 sequence: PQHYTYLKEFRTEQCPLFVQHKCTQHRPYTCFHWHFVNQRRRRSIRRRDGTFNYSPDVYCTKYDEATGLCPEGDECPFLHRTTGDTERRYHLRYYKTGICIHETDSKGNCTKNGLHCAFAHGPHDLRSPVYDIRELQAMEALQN

B1: chr15:27661301:27661302:-_ENSMUSG00000022263_ENSMUST00000090247|mus_mus|FALSE|FALSE (ssRNA)
RNA: GGGAGUUCUACAGUCCGACGAUCCCCACCCCCAACACACACAGAACCAUAAAGCUCACUUGCGAAGUAUGUGCUUUUUCUAUAUAUUUAUUACAUGUAUAACAGAAGUCUUCAUAAAUAGUUGCAGAAAAUGUUAAAGCCACACAACAGAGGAUUGAGCAUCA
B2: 57920089_57920386_1754_CDS_ENSG00000166987_ENST00000355673|human|control|control (ssRNA)
RNA: GGGAGUUCUACAGUCCGACGAUCUACUGGGGCUUUGGAGGCAGCUGGUGGGGCAGGGGCACCUGGCACACUGCUGAGGCUGCCACUGGUGGUCCCAGGCAGGGAGGGCUGGAUGGGGUGCCUGGGCUGGGGAGGGCUCCCUGACAACAGAGGAUUGAGCAUCA
B3: chr4:95690885:95690886:+_ENSMUSG00000028572_ENSMUST00000156910|mus_mus|mus_mus_mus_hu_False|8_88 (ssRNA)
RNA: GGGAGUUCUACAGUCCGACGAUCUUUAGAAAAUGUUAAAUACCAUGAGCAUGCUAAUUCAAAGGCUUAUUUUAUUUUACCAGAAGUCACAGGCAAGCAGACACUACAAGAAUAUAUGAAAAUGAAACAACAGUGUAUAACUGUCAACAGAGGAUUGAGCAUCA
B4: chr2:172291668:172291669:+_ENSG00000115827_ENST00000375255|hu_mus|FALSE|FALSE (ssRNA)
RNA: GGGAGUUCUACAGUCCGACGAUCAACACUGCUGACACAGCACCGGUAAUUGUCAAAAUAUAUUCUUCCUCUCUCAUAGGCUAUAGGUGACUUGGAAUGAGUUGUCCAAACAUUCUUAAAUUUAGUACUCUCCUGGCACACCAGCAACAGAGGAUUGAGCAUCA
B5: chr11:50112788:50112789:-_ENSMUSG00000020368_ENSMUST00000020637|mus_mus|FALSE|FALSE (ssRNA)
RNA: GGGAGUUCUACAGUCCGACGAUCGUCGGAUGUCAUGGACCAGAGCUCCAAACCAAUAGCACUGAAAGGAGUCAUCUUAAAAGGUUCUAGGUCUUCAAAGAAAUCUGGAUUUGGUAUUUUCCUUGGUUUCCAGAUUCCCUGGUACAACAGAGGAUUGAGCAUCA
B6: chr1:39494447:39494448:+_ENSG00000168653_ENST00000372967|hu_mus|hu_hu_hu_mus_False|18_28 (ssRNA)
RNA: GGGAGUUCUACAGUCCGACGAUCGCACCGAGCGGCGUUCUUAUAGGGCUGUUCUGCGCUUAGGAACAUAAAGUGCCGGUCCAGGCUGAUGCCCAGCUUUUUCUGUAUGUCCAAGAAAGGCAUGGCCCUGCAGUGCCCUUGUCACAACAGAGGAUUGAGCAUCA
B7: chr2:202488911:202488912:-_ENSG00000155755_ENST00000286196|hu_mus|hu_hu_hu_mus_False|8_38 (ssRNA)
RNA: GGGAGUUCUACAGUCCGACGAUCAUUGAAACAUUUUUCAUAAUCUCCAGUAGCAUUUCAGCAUUAUGUAACAAAAGCUCAAUUGUAAAUACAUGUAUAUACAUCUUAUACACUUAAAAACACGAGUAAAAAUGGGAGGCGCCACAACAGAGGAUUGAGCAUCA
B8: chr7:135612270:135612271:-_ENSG00000105887_ENST00000393085|hu_mus|hu_hu_hu_mus_False|18_78 (ssRNA)
RNA: GGGAGUUCUACAGUCCGACGAUCGUUUUUUUCUGAGAUGUUAAAUAGUACUUCAGUAACAAAACUUACUUAACCUUUUAUUAAUGCGUGUUGUACCAAAAGCAGACAUUUUAGCUUGCUUCCUUUAAAAAUAUUAACAUUAAGCAACAGAGGAUUGAGCAUCA
B9: chr11:106643243:106643244:-_ENSMUSG00000020719_ENSMUST00000021062|mus_hu|FALSE|FALSE (ssRNA)
RNA: GGGAGUUCUACAGUCCGACGAUCGCCUGUUGGUUCAUACCAUUGUGCAUAUUUGGAACAUUACUUCCGUAUUGCUGAGUGCUAUCAUAACCAUUCUGGUAAGUCCCUGUUGGAUUACCAGUCCUAAAACUGGUCUGUAUACCACAACAGAGGAUUGAGCAUCA
B10: chr1:225611761:225611762:-_ENSG00000143815_ENST00000272163|hu_mus|hu_hu_hu_mus_True|48_48 (ssRNA)
RNA: GGGAGUUCUACAGUCCGACGAUCCCAGGCCAUCGGCCUCUGACCACUUCACCCUCAACAAACUUCCUACUUGGCAUUUUCUAAAAUUAACCUGCGCGCGCUCCGGCGGGAACUCCAGCCACUCCAGGACAGUCACCAGCAGCCCAACAGAGGAUUGAGCAUCA
B11: chr7:149068622:149068623:-_ENSMUSG00000025139_ENSMUST00000001950|mus_hu|mus_mus_mus_hu_False|78_108 (ssRNA)
RNA: GGGAGUUCUACAGUCCGACGAUCGUGCAGGUACUGAGUGUGGCUUGUGGUCUGUCCUGUCUGCAGUUUGUUAAUAUCACGGAACAUACCAUCUAGAACGUUCCAGUCCCGCCUGACACCUUCAUUCCCAAUGGAGAAGAAAUCCAACAGAGGAUUGAGCAUCA
B12: chr7:131071926:131071927:+_ENSG00000128585_ENST00000352689|hu_hu|FALSE|FALSE (ssRNA)
RNA: GGGAGUUCUACAGUCCGACGAUCUUUCUUCAAAUUGCAAACAUGAGUUUUCUCAUAUUUUCCAAAUGUGAUAUUCUGAACUAUAGCAGGCCUUUCGAGCUUUAGAAUCAAGUACUGGGGAGGAUAGUUGCUCUCUGAAGACCACAACAGAGGAUUGAGCAUCA
B13: chr11:77340908:77340909:-_ENSG00000074201_ENST00000525064|hu_hu|hu_hu_hu_mus_True|38_48 (ssRNA)
RNA: GGGAGUUCUACAGUCCGACGAUCGUUUGGAUCCCUGGACACCGCAUGUAAACUAAUGGUGGGGUAUUCCAGUGAGAAUCCUAAUCCAGAGCCAUCUAACCAAGACAGGCGGCUCUCCGCGAUGUAAAGCGUGCCGGUGCCGAGCAACAGAGGAUUGAGCAUCA
B14: chr5:128440902:128440903:+_ENSG00000066583_ENST00000173527|hu_mus|hu_hu_hu_mus_True|38_58 (ssRNA)
RNA: GGGAGUUCUACAGUCCGACGAUCUUGAACGGUGCUGCCAAGUCCUUUGGGGUAUUGUUCCGUUAUGAUAACUGGAAUUCCUAAAAUCCGAGCUCCUUGCAACAAUCUCUGUCCCACACUAAUGAUGUCCCCAAAGUAUUUGAUCAACAGAGGAUUGAGCAUCA
B15: chr16:94664741:94664742:+_ENSMUSG00000040785_ENSMUST00000117648|mus_hu|mus_mus_mus_hu_False|88_108 (ssRNA)
RNA: GGGAGUUCUACAGUCCGACGAUCUGGCAUGGAUCUUGGUAGCUGAUACUCAGAAGAAAGGCUGGCCAAGGGUGUAUAUAUGCUGGUGUACUGGGGCAAACCUGGUAACACGUUUAUGUAUGCUGGCGGUGUCUGGGUGAUAUCCAACAGAGGAUUGAGCAUCA
B16: chr11:87793471:87793472:-_ENSMUSG00000020483_ENSMUST00000020775|mus_mus|mus_mus_mus_hu_False|28_48 (ssRNA)
RNA: GGGAGUUCUACAGUCCGACGAUCUGGACUUGAAAAUAAAAGAAUAAGCUGGAUCCCCCACCCCCCCACAUUGUCAACCCUACACGAGUUCUGAAUGGGCGACUCAUGAAUCAGCAGAGCUCAAACGGCAAUGACCACCCCACCCAACAGAGGAUUGAGCAUCA
B17: chrX:140365796:140365797:-_ENSMUSG00000031285_ENSMUST00000033642|mus_mus|mus_mus_mus_hu_False|58_108 (ssRNA)
RNA: GGGAGUUCUACAGUCCGACGAUCCUUCUCAUUACUUAGUGCCUGCAAGGUUCUGGUUCGGUAGAAGCUACAGUGGGCACUAUGAGUGGGGCUAGGCAACCCAUUCAUCCGGGAGCCUCGCAUGUUCCUGGAUGUCUUAUCUCUCAACAGAGGAUUGAGCAUCA
B18: chr2:198267338:198267339:-_ENSG00000115524_ENST00000335508|hu_mus|FALSE|FALSE (ssRNA)
RNA: GGGAGUUCUACAGUCCGACGAUCAAUGAUUUCAACCAAACUUCUGAGAUGUGGCAAGAUAGCACAGCCCAUGAGAAUGGCUAUCUGUUGUACAAUCUUAAUACCAGUGUGCCUCGCUUGCCAAGACUUCUUGCUUUUGCACACCAACAGAGGAUUGAGCAUCA
B19: chr1:33856384:33856385:-_ENSMUSG00000042197_ENSMUST00000044455|mus_mus|FALSE|FALSE (ssRNA)
RNA: GGGAGUUCUACAGUCCGACGAUCUAGUGCUGUCUUGAAAAUACUUAAGAGCUGUACAAUAAUGUCAAAAUUAUUAAAGUGCUAAAUUUUCUGUGCUUUUUUGUUGCCGUUUAAUAUAAAGCGGGGAUUGAUACAAAUAAAUUACAACAGAGGAUUGAGCAUCA
B20: chr7:23164667:23164668:+_ENSG00000122550_ENST00000322275|hu_hu|motif|central (ssRNA)
RNA: GGGAGUUCUACAGUCCGACGAUCCACAGGUUCAAUCUGAUAUUGGUUUGCUGCAUCCAGCAAAGACUGAACAUUGUUGCGGUUCACGGAAAUUCUAGCAGUAUAAGCAAAUUCCACCAGUUGUUCAAUAAUAUCAGGUUCAGCCAACAGAGGAUUGAGCAUCA
B21: chr11:64088491:64088492:+_ENSG00000126432_ENST00000265462|hu_hu|FALSE|FALSE (ssRNA)
RNA: GGGAGUUCUACAGUCCGACGAUCCACCAUGGAGAACCUCUUGAGACGUCGAUUCCCAAAGAUGGACACCAGCGAAUCAUCUAGUAAUAAGUCUGUCUCCUUCCCAAAGGCCCCAGUGGGAUCAGCCAGGAGCCGAACCUUGCCCAACAGAGGAUUGAGCAUCA
B22: chr4:140556289:140556290:+_ENSMUSG00000036622_ENSMUST00000037055|mus_mus|mus_mus_mus_hu_False|28_28 (ssRNA)
RNA: GGGAGUUCUACAGUCCGACGAUCGAUGGAGCUCACCAGGCCCCCUUUUGCCGUGCAGAACCCUGUGCGGGUCACCACUGCCAGGACGUGCGGUCCCACAUAGGCCCGGGCCUGCAGGAUGAGGGUCCCGCAGAAGAGUGUGUGCAACAGAGGAUUGAGCAUCA

The test concerns the target T1, UNK ZnF1-3. Kind of test: nsRBNS (natural sequence RNA bind-n-seq); RBNS binding buffer (assumed for nsRBNS): 25 mM Tris pH 7.5, 150 mM KCl, 3 mM MgCl2, 0.01% Triton X-100, 500 ug/ml BSA, 20 U/ml SUPERase-In, 4 C; UNK is unkempt and MSI1 is Musashi-1; names of the RNAs are library labels; protein concentration not given here; high values mean tight binding.
The molecule B1 displayed a binding signal of 2.22 enrichment R.
Molecule B2 yielded a binding signal of 0.793 enrichment R.
For the molecule B3, the binding signal came out at 2.2 enrichment R.
B4 registered a binding signal of 1.42 enrichment R.
On to B5, for which the binding signal worked out at 0.688 enrichment R.
Under B6 stands 0.733 enrichment R; under B7, 1.08 enrichment R.
Take B8: the binding signal came to 0.492 enrichment R.
In the case of B9, the binding signal is 0.516 enrichment R.
In turn, B10 had a binding signal of 1.62 enrichment R.
Molecule B11 showed a binding signal of 0.883 enrichment R.
B12 showed a binding signal of 1.09 enrichment R.
Regarding B13, the binding signal turned out to be 0.845 enrichment R.
In turn, B14 displayed a binding signal of 0.983 enrichment R.
Molecule B15 yielded a binding signal of 1.14 enrichment R.
B16 returned a binding signal of 1.79 enrichment R.
B17 yielded a binding signal of 0.461 enrichment R.
The molecule B18 returned a binding signal of 0.444 enrichment R.
Under B19 stands 2.15 enrichment R.
B20 yielded a binding signal of 1.48 enrichment R.
B21 displayed a binding signal of 1.43 enrichment R.
B22 had a binding signal of 0.73 enrichment R.
